{
  "source": "the supplement of paper PMC8728848",
  "binders": {"B1": {"name": "LSECtin (Homo sapiens), Q6UXB4 (protein)", "chain": "MDTTRYSKWGGSSEEVPGGPWGRWVHWSRRPLFLALAVLVTTVLWAVILSILLSKASTERAALLDGHDLLRTNASKQTAALGALKEEVGDCHSCCSGTQAQLQTTRAELGEAQAKLMEQESALRELRERVTQGLAEAGRGREDVRTELFRALEAVRLQNNSCEPCPTSWLSFEGSCYFFSVPKTTWAAAQDHCADASAHLVIVGGLDEQGFLTRNTRGRGYWLGLRAVRHLGKVQGYQWVDGVSLSFSHWNQGEPNDAWGRENCVMMLHTGLWNDAPCDSEKDGWICEKRHNC"}},
  "assay_in_all_cases": "glycan array binding signal (z-score within array); higher = stronger binding",
  "settings_in_all_cases": "glycan notation: IUPAC condensed, linker removed",
  "key": {"[1]": {"biological_target": "Gal(b1-4)GlcNAc(b1-2)[Gal(b1-4)GlcNAc(b1-4)]Man(a1-3)[Gal(b1-4)GlcNAc(b1-2)Man(a1-6)]Man(b1-4)GlcNAc(b1-4)GlcNAc", "method_in_brief": "(§1)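 From the Consortium for Functional Glycomics database, 3228 arrays were curated, keeping only those whose protein sequence was available. Binding is given as a within-array Z-score averaged across arrays sharing a protein sequence and across linkers. Negative Z-scores can be read as non-binding.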"}, "[2]": {"biological_target": "Gal(b1-4)GlcNAc(b1-2)[Gal(b1-4)GlcNAc(b1-4)]Man(a1-3)[Gal(b1-4)GlcNAc(b1-2)[Gal(b1-4)GlcNAc(b1-6)]Man(a1-6)]Man(b1-4)GlcNAc(b1-4)GlcNAc", "method_in_brief": "as §1"}, "[3]": {"biological_target": "Gal(b1-4)GlcNAc(b1-2)[Gal(b1-4)GlcNAc(b1-4)]Man(a1-3)[Gal(b1-4)GlcNAc(b1-2)[Gal(b1-4)GlcNAc(b1-6)]Man(a1-6)][GlcNAc(b1-4)]Man(b1-4)GlcNAc(b1-4)GlcNAc", "method_in_brief": "as §1"}, "[4]": {"biological_target": "Gal(b1-4)GlcNAc(b1-2)[Gal(b1-4)GlcNAc(b1-4)]Man(a1-3)[GlcNAc(b1-4)][Gal(b1-4)GlcNAc(b1-2)Man(a1-6)]Man(b1-4)GlcNAc(b1-4)GlcNAc", "method_in_brief": "as §1"}, "[5]": {"biological_target": "Gal(b1-4)GlcNAc(b1-2)[Gal(b1-4)GlcNAc(b1-4)]Man(a1-3)[GlcNAc(b1-4)][Gal(b1-4)GlcNAc(b1-2)[Gal(b1-4)GlcNAc(b1-6)]Man(a1-6)]Man(b1-4)GlcNAc(b1-4)GlcNAc", "method_in_brief": "as §1"}, "[6]": {"biological_target": "Gal(b1-4)GlcNAc(b1-2)[Gal(b1-4)GlcNAc(b1-6)]Man(a1-6)[Gal(b1-4)GlcNAc(b1-2)Man(a1-3)]Man(b1-4)GlcNAc(b1-4)GlcNAc", "method_in_brief": "as §1"}, "[7]": {"biological_target": "Gal(b1-4)GlcNAc(b1-2)[Gal(b1-4)GlcNAc(b1-6)]Man(a1-6)[Gal(b1-4)GlcNAc(b1-2)Man(a1-3)]Man(b1-4)GlcNAc(b1-4)[Fuc(a1-6)]GlcNAc", "method_in_brief": "as §1"}, "[8]": {"biological_target": "Gal(b1-4)GlcNAc(b1-2)[Gal(b1-4)GlcNAc(b1-6)]Man(a1-6)[GlcNAc(b1-4)][Gal(b1-4)GlcNAc(b1-2)Man(a1-3)]Man(b1-4)GlcNAc(b1-4)GlcNAc", "method_in_brief": "as §1"}, "[9]": {"biological_target": "Gal(b1-4)GlcNAc(b1-2)[Gal(b1-4)GlcNAc(b1-6)]Man(a1-6)[GlcNAc(b1-4)][Gal(b1-4)GlcNAc(b1-2)[Gal(b1-4)GlcNAc(b1-4)]Man(a1-3)]Man(b1-4)GlcNAc(b1-4)[Fuc(a1-6)]GlcNAc", "method_in_brief": "as §1"}, "[10]": {"biological_target": "Gal(b1-4)GlcNAc(b1-3)Gal(b1-3)GalNAc", "method_in_brief": "as §1"}, "[11]": {"biological_target": "Gal(b1-4)GlcNAc(b1-3)Gal(b1-3)GlcNAc", "method_in_brief": "as §1"}, "[12]": {"biological_target": "Gal(b1-4)GlcNAc(b1-3)Gal(b1-4)Glc", "method_in_brief": "as §1"}, "[13]": {"biological_target": "Gal(b1-4)GlcNAc(b1-3)Gal(b1-4)GlcNAc", "method_in_brief": "as §1"}, "[14]": {"biological_target": "Gal(b1-4)GlcNAc(b1-3)Gal(b1-4)GlcNAc(b1-2)Man(a1-3)[Gal(b1-4)GlcNAc(b1-3)Gal(b1-4)GlcNAc(b1-2)Man(a1-6)]Man(b1-4)GlcNAc(b1-4)GlcNAc", "method_in_brief": "as §1"}, "[15]": {"biological_target": "Gal(b1-4)GlcNAc(b1-3)Gal(b1-4)GlcNAc(b1-2)Man(a1-3)[Gal(b1-4)GlcNAc(b1-3)Gal(b1-4)GlcNAc(b1-2)Man(a1-6)]Man(b1-4)GlcNAc(b1-4)[Fuc(a1-6)]GlcNAc", "method_in_brief": "as §1"}, "[16]": {"biological_target": "Gal(b1-4)GlcNAc(b1-3)Gal(b1-4)GlcNAc(b1-2)[Gal(b1-4)GlcNAc(b1-3)Gal(b1-4)GlcNAc(b1-6)]Man(a1-6)[Gal(b1-4)GlcNAc(b1-3)Gal(b1-4)GlcNAc(b1-2)Man(a1-3)]Man(b1-4)GlcNAc(b1-4)GlcNAc", "method_in_brief": "as §1"}, "[17]": {"biological_target": "Gal(b1-4)GlcNAc(b1-3)Gal(b1-4)GlcNAc(b1-2)[Gal(b1-4)GlcNAc(b1-3)Gal(b1-4)GlcNAc(b1-6)]Man(a1-6)[Gal(b1-4)GlcNAc(b1-3)Gal(b1-4)GlcNAc(b1-2)Man(a1-3)]Man(b1-4)GlcNAc(b1-4)[Fuc(a1-6)]GlcNAc", "method_in_brief": "as §1"}, "[18]": {"biological_target": "Gal(b1-4)GlcNAc(b1-3)Gal(b1-4)GlcNAc(b1-3)Gal(b1-4)GlcNAc", "method_in_brief": "as §1"}, "[19]": {"biological_target": "Gal(b1-4)GlcNAc(b1-3)Gal(b1-4)GlcNAc(b1-3)Gal(b1-4)GlcNAc(b1-2)Man(a1-3)[Gal(b1-4)GlcNAc(b1-3)Gal(b1-4)GlcNAc(b1-3)Gal(b1-4)GlcNAc(b1-2)Man(a1-6)]Man(b1-4)GlcNAc(b1-4)GlcNAc", "method_in_brief": "as §1"}, "[20]": {"biological_target": "Gal(b1-4)GlcNAc(b1-3)Gal(b1-4)GlcNAc(b1-3)Gal(b1-4)GlcNAc(b1-2)Man(a1-3)[Gal(b1-4)GlcNAc(b1-3)Gal(b1-4)GlcNAc(b1-3)Gal(b1-4)GlcNAc(b1-2)Man(a1-6)]Man(b1-4)GlcNAc(b1-4)[Fuc(a1-6)]GlcNAc", "method_in_brief": "as §1"}, "[21]": {"biological_target": "Gal(b1-4)GlcNAc(b1-3)Gal(b1-4)GlcNAc(b1-3)Gal(b1-4)GlcNAc(b1-2)[Gal(b1-4)GlcNAc(b1-3)Gal(b1-4)GlcNAc(b1-3)Gal(b1-4)GlcNAc(b1-6)]Man(a1-6)[Gal(b1-4)GlcNAc(b1-3)Gal(b1-4)GlcNAc(b1-3)Gal(b1-4)GlcNAc(b1-2)Man(a1-3)]Man(b1-4)GlcNAc(b1-4)[Fuc(a1-6)]GlcNAc", "method_in_brief": "as §1"}, "[22]": {"biological_target": "Gal(b1-4)GlcNAc(b1-3)Gal(b1-4)GlcNAc(b1-3)Gal(b1-4)GlcNAc(b1-3)Gal(b1-4)GlcNAc(b1-2)Man(a1-3)[Gal(b1-4)GlcNAc(b1-3)Gal(b1-4)GlcNAc(b1-3)Gal(b1-4)GlcNAc(b1-3)Gal(b1-4)GlcNAc(b1-2)Man(a1-6)]Man(b1-4)GlcNAc(b1-4)GlcNAc", "method_in_brief": "as §1"}},
  "note": "Some of the results follow.",
  "data": [
    {"binder": "B1", "values": [
      {"measurement": "glycan array binding signal (z-score)", "setting": "[1]", "value": -0.157},
      {"measurement": "glycan array binding signal (z-score)", "setting": "[2]", "value": -0.138},
      {"measurement": "glycan array binding signal (z-score)", "setting": "[3]", "value": -0.147},
      {"measurement": "glycan array binding signal (z-score)", "setting": "[4]", "value": -0.119},
      {"measurement": "glycan array binding signal (z-score)", "setting": "[5]", "value": -0.138},
      {"measurement": "glycan array binding signal (z-score)", "setting": "[6]", "value": -0.137},
      {"measurement": "glycan array binding signal (z-score)", "setting": "[7]", "value": -0.116},
      {"measurement": "glycan array binding signal (z-score)", "setting": "[8]", "value": -0.138},
      {"measurement": "glycan array binding signal (z-score)", "setting": "[9]", "value": -0.136},
      {"measurement": "glycan array binding signal (z-score)", "setting": "[10]", "value": -0.141},
      {"measurement": "glycan array binding signal (z-score)", "setting": "[11]", "value": -0.189},
      {"measurement": "glycan array binding signal (z-score)", "setting": "[12]", "value": -0.174},
      {"measurement": "glycan array binding signal (z-score)", "setting": "[13]", "value": -0.154},
      {"measurement": "glycan array binding signal (z-score)", "setting": "[14]", "value": -0.13},
      {"measurement": "glycan array binding signal (z-score)", "setting": "[15]", "value": -0.125},
      {"measurement": "glycan array binding signal (z-score)", "setting": "[16]", "value": -0.139},
      {"measurement": "glycan array binding signal (z-score)", "setting": "[17]", "value": -0.135},
      {"measurement": "glycan array binding signal (z-score)", "setting": "[18]", "value": -0.119},
      {"measurement": "glycan array binding signal (z-score)", "setting": "[19]", "value": -0.123},
      {"measurement": "glycan array binding signal (z-score)", "setting": "[20]", "value": -0.132},
      {"measurement": "glycan array binding signal (z-score)", "setting": "[21]", "value": -0.131},
      {"measurement": "glycan array binding signal (z-score)", "setting": "[22]", "value": -0.133}
    ]}
  ]
}
